{"source": "paper PMC4336329", "about": "(PLoS ONE, 2015)", "note": "Out of some 310,000 compounds screened, about 2,200 (0.71%) showed an effect of 50% or more. Effects have a minus sign here. This is one part of the list.", "data": [{"molecular_target": "human ether-à-go-go-related gene (hERG) potassium channel (human, UniProt Q12809)", "sequence (Q12809 whole entry, looked up)": "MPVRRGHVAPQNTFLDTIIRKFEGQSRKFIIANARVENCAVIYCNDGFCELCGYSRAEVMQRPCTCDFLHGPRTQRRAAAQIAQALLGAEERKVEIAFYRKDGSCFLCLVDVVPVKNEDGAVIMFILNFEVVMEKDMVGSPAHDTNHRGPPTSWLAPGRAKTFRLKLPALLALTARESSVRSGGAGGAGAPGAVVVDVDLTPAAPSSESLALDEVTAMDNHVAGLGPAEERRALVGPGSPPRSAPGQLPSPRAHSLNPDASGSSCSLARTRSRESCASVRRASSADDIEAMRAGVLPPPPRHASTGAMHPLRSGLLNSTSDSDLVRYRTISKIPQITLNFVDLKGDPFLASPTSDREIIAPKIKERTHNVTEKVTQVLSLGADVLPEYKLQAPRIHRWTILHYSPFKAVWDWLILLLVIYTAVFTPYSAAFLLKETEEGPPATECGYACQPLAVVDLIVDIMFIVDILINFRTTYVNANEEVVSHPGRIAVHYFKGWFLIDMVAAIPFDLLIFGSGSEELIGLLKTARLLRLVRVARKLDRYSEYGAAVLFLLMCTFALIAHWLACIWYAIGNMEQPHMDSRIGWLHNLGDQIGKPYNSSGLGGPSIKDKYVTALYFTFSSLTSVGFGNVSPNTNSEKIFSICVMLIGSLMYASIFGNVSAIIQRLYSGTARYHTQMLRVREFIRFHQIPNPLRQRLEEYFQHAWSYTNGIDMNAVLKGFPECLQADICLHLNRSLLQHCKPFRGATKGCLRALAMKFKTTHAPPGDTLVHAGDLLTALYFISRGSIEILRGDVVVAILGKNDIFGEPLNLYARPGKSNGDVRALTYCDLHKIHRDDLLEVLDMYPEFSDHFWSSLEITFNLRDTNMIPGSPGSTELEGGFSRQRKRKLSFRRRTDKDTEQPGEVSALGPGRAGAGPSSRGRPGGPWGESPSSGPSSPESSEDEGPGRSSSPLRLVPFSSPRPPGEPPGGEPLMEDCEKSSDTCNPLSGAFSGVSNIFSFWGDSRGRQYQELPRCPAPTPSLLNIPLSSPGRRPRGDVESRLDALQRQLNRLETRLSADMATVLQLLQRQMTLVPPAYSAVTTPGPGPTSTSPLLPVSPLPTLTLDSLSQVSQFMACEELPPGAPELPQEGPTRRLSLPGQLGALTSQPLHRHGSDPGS", "assay": "primary screen, population patch clamp on CHO cells stably expressing hERG", "units": {"hERG current change (%, negative = inhibition) at 1uM": "%"}, "values": [{"smiles": "CC(O)CNc1nc2c(c(=O)n(C)c(=O)n2C)n1CCc1ccccc1", "note": "(stereo not drawn)", "hERG current change (%, negative = inhibition) at 1uM": 17.1}, {"smiles": "Cc1ccc(CNC(=O)C2CC(c3cccc([N+](=O)[O-])c3)=NO2)cc1", "note": "(stereo not drawn)", "hERG current change (%, negative = inhibition) at 1uM": 3.59}, {"smiles": "COC(=O)/C=C1/S/C(=N/NC(=O)c2ccc(Cl)cc2Cl)NC1=O", "hERG current change (%, negative = inhibition) at 1uM": 3.61}, {"smiles": "Cc1cccc(N2C(=O)SC(N(C)c3ccccc3)C2=O)c1", "note": "(stereo not drawn)", "hERG current change (%, negative = inhibition) at 1uM": -0.856}, {"smiles": "O=C(COC(=O)c1cccs1)Nc1ccccc1Cl", "hERG current change (%, negative = inhibition) at 1uM": 14.6}, {"smiles": "CCc1ccc2oc(-c3cc(N)ccc3O)nc2c1", "hERG current change (%, negative = inhibition) at 1uM": 9.06}, {"smiles": "Nc1nnc(CC(=O)N/N=C/c2ccccc2OCc2ccccc2F)s1", "hERG current change (%, negative = inhibition) at 1uM": 14.3}, {"smiles": "CC1(C)C([N+](=O)[O-])C(c2ccc(Cl)cc2)NC(c2ccc(Cl)cc2)C1[N+](=O)[O-]", "note": "(stereo not drawn)", "hERG current change (%, negative = inhibition) at 1uM": 12.2}, {"smiles": "CCCNS(=O)(=O)c1ccc(OCC(=O)N2CCC(C(=O)OCC)CC2)cc1", "hERG current change (%, negative = inhibition) at 1uM": 2.86}, {"smiles": "CC(=O)c1ccc(OCC(O)CN2CCN(CCN3C(=O)c4cccc5cccc(c45)C3=O)CC2)cc1.Cl", "note": "(stereo not drawn)", "hERG current change (%, negative = inhibition) at 1uM": 1.61}, {"smiles": "CNc1ccc(S(=O)(=O)NCC(=O)OC(C)C(=O)N(C)Cc2ccccc2)cc1[N+](=O)[O-]", "note": "(stereo not drawn)", "hERG current change (%, negative = inhibition) at 1uM": 12.2}, {"smiles": "COc1ccccc1/C=C/C(=O)NCC(=O)N/N=C/c1ccccc1[N+](=O)[O-]", "hERG current change (%, negative = inhibition) at 1uM": 3.16}, {"smiles": "CNC(=O)c1nnn(Cc2ccccc2)c1NC(=O)C(F)(F)F", "hERG current change (%, negative = inhibition) at 1uM": 16.8}, {"smiles": "Cc1nc(-c2cccc(NC(=O)c3ccc(-n4nccc4C)cc3)c2)cs1", "hERG current change (%, negative = inhibition) at 1uM": 8.67}, {"smiles": "O=Cc1cccc(OC(=O)c2ccc(Cl)cc2Cl)c1", "hERG current change (%, negative = inhibition) at 1uM": 15}, {"smiles": "COc1ccc(N2C(=O)c3ccccc3NC2c2ccc(OC)c(Cn3nnc4ccccc43)c2)cc1", "note": "(stereo not drawn)", "hERG current change (%, negative = inhibition) at 1uM": 1.74}, {"smiles": "CC(=O)O[C@H]1CCC2C3CCC4=CC(=O)CCC4=C3C=C[C@@]21C", "note": "(stereo partly drawn)", "hERG current change (%, negative = inhibition) at 1uM": 8.23}, {"smiles": "CCC(=O)Nc1ccc(C(=O)NNC(=O)c2cc(OC)c(OC)c(OC)c2)cc1", "hERG current change (%, negative = inhibition) at 1uM": 11.9}, {"smiles": "COCC(=O)Nc1ccc(C(=O)Nc2ccccc2Cl)cc1", "hERG current change (%, negative = inhibition) at 1uM": 12.4}, {"smiles": "Cc1cccc(C)c1NC(=O)N1CCCCCCC1", "hERG current change (%, negative = inhibition) at 1uM": 11.5}, {"smiles": "COc1ccccc1-c1cn[nH]c1-c1ccc(OCc2ccccc2F)cc1O", "hERG current change (%, negative = inhibition) at 1uM": 12.6}, {"smiles": "Cc1ccccc1NC(C)C(=O)N/N=C/c1c[nH]c2ccccc12", "note": "(stereo not drawn)", "hERG current change (%, negative = inhibition) at 1uM": 29.1}, {"smiles": "Cc1ccc(C)c(NC(=S)NCCSc2ccc(Cl)cc2)c1", "hERG current change (%, negative = inhibition) at 1uM": 11.9}, {"smiles": "O=C(NCc1ccc(C(F)(F)F)cc1)C1CC(c2ccc(C(F)(F)F)cc2)=NO1", "note": "(stereo not drawn)", "hERG current change (%, negative = inhibition) at 1uM": 8.63}, {"smiles": "Cc1coc2cc3oc(=O)c(CCC(=O)NCCCN4CCCC4=O)c(C)c3cc12", "hERG current change (%, negative = inhibition) at 1uM": 11.8}, {"smiles": "COc1ccc2nc(SCC(=O)NC(C)C)[nH]c2c1", "hERG current change (%, negative = inhibition) at 1uM": 17.7}, {"smiles": "COc1cccc2cc(C(=O)N3CCCCC3C)c(=O)oc12", "note": "(stereo not drawn)", "hERG current change (%, negative = inhibition) at 1uM": 7.58}, {"smiles": "CC(=O)C1=C(C)NC(=O)CC1c1ccccc1Cl", "note": "(stereo not drawn)", "hERG current change (%, negative = inhibition) at 1uM": 8.02}, {"smiles": "COc1cccc(NS(=O)(=O)c2ccc3c(c2)N(C(C)=O)CCS3)c1", "hERG current change (%, negative = inhibition) at 1uM": 11}, {"smiles": "CC(C)n1nnnc1SCC(=O)NC1CCCC1", "hERG current change (%, negative = inhibition) at 1uM": 13}, {"smiles": "O=C(O)CCSC(=S)N1CCOCC1", "hERG current change (%, negative = inhibition) at 1uM": 5.45}, {"smiles": "CCOC(=O)c1ccc(NC(=S)N2CCN(CCNC3=CC(=O)CC(C)(C)C3)CC2)cc1", "hERG current change (%, negative = inhibition) at 1uM": 11.1}, {"smiles": "O=C(Cc1c(F)cccc1Cl)Nc1nc2ccccc2s1", "hERG current change (%, negative = inhibition) at 1uM": 4.63}, {"smiles": "Clc1ccc(-c2nc(N3CCCCC3)nc3ccccc23)cc1", "hERG current change (%, negative = inhibition) at 1uM": 6.62}, {"smiles": "Cc1ccc(C(=O)N/C(=C\\c2ccc(-c3ccccc3[N+](=O)[O-])o2)C(=O)NCCCN(C)C)cc1", "hERG current change (%, negative = inhibition) at 1uM": -14.9}, {"smiles": "CCCN(C(=O)c1cc(Cl)nc2ccccc12)c1c(N)n(Cc2ccccc2)c(=O)[nH]c1=O", "hERG current change (%, negative = inhibition) at 1uM": -2.99}, {"smiles": "CN(C)S(=O)(=O)c1ccc(N2CCCC2)c(C(=O)Nc2nc(-c3cc(F)ccc3F)cs2)c1", "hERG current change (%, negative = inhibition) at 1uM": 5.97}, {"smiles": "Cc1noc(C)c1CSc1ccc2ccccc2n1", "hERG current change (%, negative = inhibition) at 1uM": 4.91}, {"smiles": "Cc1cc(C(=O)NNC(=O)c2cccs2)nn1C(C)(C)C", "hERG current change (%, negative = inhibition) at 1uM": 6.27}, {"smiles": "Cc1ccc(S(=O)(=O)N(c2cccc(C)c2)C2CCS(=O)(=O)C2)cc1", "note": "(stereo not drawn)", "hERG current change (%, negative = inhibition) at 1uM": 6.79}, {"smiles": "COc1ccc(C(C[N+](=O)[O-])c2c(-c3ccccc3)cc3ccccn23)cc1OC", "note": "(stereo not drawn)", "hERG current change (%, negative = inhibition) at 1uM": 6.52}, {"smiles": "CCc1ccc(-c2nc(CS(=O)CC(=O)NCCCN3CCOCC3)c(C)o2)cc1", "note": "(stereo not drawn)", "hERG current change (%, negative = inhibition) at 1uM": 20.8}, {"smiles": "COc1ccc(CN2C(=NC(=O)C3CCCCC3)SC3CS(=O)(=O)CC32)cc1", "note": "(stereo not drawn)", "hERG current change (%, negative = inhibition) at 1uM": 3.61}, {"smiles": "O=C(/C=C/c1ccccc1)Nc1ccc(NC(=O)c2cccs2)cc1", "hERG current change (%, negative = inhibition) at 1uM": 6.21}, {"smiles": "CN(CCOc1ccccc1)CC(=O)Nc1ccc(Cl)cc1[N+](=O)[O-].O=C(O)C(=O)O", "hERG current change (%, negative = inhibition) at 1uM": 4.11}, {"smiles": "CN(CC(=O)Nc1ccc(N2CCOCC2)cc1)Cc1cc(=O)n2ccsc2n1", "hERG current change (%, negative = inhibition) at 1uM": 1.49}, {"smiles": "Cc1cccc(C)c1Nc1c(-c2ccc(N3CCOCC3)cc2)nc2ncccn12", "hERG current change (%, negative = inhibition) at 1uM": 6.9}, {"smiles": "CCCCOC(=O)c1[nH]c(C)c(C(=O)OC)c1C", "hERG current change (%, negative = inhibition) at 1uM": 15.4}, {"smiles": "O=C(CNCc1ccccn1)Nc1ccc([N+](=O)[O-])cc1C(=O)Nc1ccccc1F", "hERG current change (%, negative = inhibition) at 1uM": 16.1}, {"smiles": "O=C(NC(Cc1ccccc1)C(=O)O)/C(=C\\c1ccco1)NC(=O)c1ccccc1", "note": "(stereo not drawn)", "hERG current change (%, negative = inhibition) at 1uM": 9.51}, {"smiles": "CC1(C)Cc2[nH]c(=O)c(C#N)cc2CS1", "hERG current change (%, negative = inhibition) at 1uM": -5.4}, {"smiles": "COc1cc(OC)cc(-c2cc(N3C(=O)Nc4ccccc4N3O)n[nH]2)c1", "hERG current change (%, negative = inhibition) at 1uM": 13}, {"smiles": "Cc1ccc(N(CC(=O)NCCc2ccc(F)cc2)S(=O)(=O)c2ccc(Cl)c([N+](=O)[O-])c2)c(C)c1", "hERG current change (%, negative = inhibition) at 1uM": 6.26}, {"smiles": "COc1ccc(C(C(=O)NC2CCCC2)N(C(=O)CNC(=O)c2ccco2)c2cccnc2)cc1", "note": "(stereo not drawn)", "hERG current change (%, negative = inhibition) at 1uM": 7.36}]}]}
